# Test results: PMC6919601, “Identification of Plasmodium dipeptidyl aminopeptidase allosteric inhibitors by high throughput screening” (PLoS ONE, 2019)
# Where “and” joins values, the source holds several entries; their conditions need not be identical. Identical values can stand only once. Screen size: about 110,000 compounds; about 230 (0.21%) showed an effect of 50% or more. This is one part of the list.
# Biological target: DPAP1 (Plasmodium falciparum, UniProt Q8IIJ9)
# Test: primary screen, percent inhibition; read by cleavage of a fluorogenic dipeptide substrate; higher = more effect of the substance
# Set-up: species or system P. falciparum D10 trophozoite lysates; single well
# 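Also: 30 min substrate incubation versus DMSO and 10 µM JCP410 controls.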
# Chain of DPAP1 (Q8IIJ9 whole entry, looked up): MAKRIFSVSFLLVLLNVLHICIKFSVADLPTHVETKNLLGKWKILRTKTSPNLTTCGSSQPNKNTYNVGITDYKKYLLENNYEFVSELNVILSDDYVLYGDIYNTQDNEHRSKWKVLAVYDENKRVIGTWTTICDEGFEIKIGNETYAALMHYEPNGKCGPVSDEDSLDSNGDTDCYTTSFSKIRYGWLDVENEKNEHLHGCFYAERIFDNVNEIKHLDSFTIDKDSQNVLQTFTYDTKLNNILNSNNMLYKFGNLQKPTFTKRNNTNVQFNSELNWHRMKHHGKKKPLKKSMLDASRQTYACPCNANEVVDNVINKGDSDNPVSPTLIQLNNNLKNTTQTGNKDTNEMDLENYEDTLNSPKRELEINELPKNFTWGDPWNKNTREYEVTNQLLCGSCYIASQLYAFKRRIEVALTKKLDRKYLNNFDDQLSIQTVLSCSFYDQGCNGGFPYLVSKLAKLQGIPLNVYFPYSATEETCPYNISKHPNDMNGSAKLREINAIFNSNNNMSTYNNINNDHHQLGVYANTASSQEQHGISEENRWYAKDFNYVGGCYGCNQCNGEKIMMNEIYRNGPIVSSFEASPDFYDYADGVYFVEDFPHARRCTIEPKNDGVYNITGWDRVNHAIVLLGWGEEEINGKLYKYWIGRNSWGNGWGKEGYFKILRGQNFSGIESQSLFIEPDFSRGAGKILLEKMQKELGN
row,SMILES,% Inhibition @ 10 uM
1,COc1ccc(C(=O)NCC(=O)Nc2nc3ccccc3s2)cc1,-6.74%
2,COc1cc(-c2nc(S(=O)(=O)c3ccc(C)cc3)c(N3CCOCC3)o2)cc(OC)c1OC,-1.32%
3,Cc1ccc(-c2cc(C(=O)N3CCCCCC3)c3ccccc3n2)o1,14.6%
4,COC(=O)c1cc2c(Cl)nc3ccc(C)cc3c2s1,3.54%
5,CC(C)(C)OC(=O)N1CCC(c2c(C(=O)Nc3cccnc3)cnn2-c2ccccc2Cl)CC1,5.25%
6,COc1ccccc1NC(=O)C1=C(C)N=C2CC(C)(C)CC(O)=C2C1c1cccc(OC)c1OC (centres unmarked),1.35%
7,COCCCNC(=O)CCN1N=C(c2ccc(OC)cc2)CCC1=O,-0.0542%
8,C=CCN1C(=O)[C@H]2Cc3c([nH]c4ccccc34)[C@@H](c3ccc(O)cc3)N2C1=S,3.05%
9,COCc1cc(C2C(C#N)=C(N)OC3=C2C(=O)CC(C)(C)C3)ccc1OC (centres unmarked),-7.4%
10,Cc1ccccc1CN1C(=O)C(=O)c2ccccc21,-2.53%
11,O=C(c1nc(-c2ccncc2)no1)N1CCC2(CC1)OCCO2,-5.05%
12,COc1ccc(/N=C2\SC(CC(=O)Nc3ccc(F)cc3)C(=O)N2C)cc1 (centres unmarked),-5.23%
13,CSCCC(NC(=O)/C(=C/c1ccc(Cl)cc1)NC(=O)c1ccccc1)C(=O)O (centres unmarked),-1.19%
14,Cc1cc(C)c(C(N)=O)c(Nc2cc(Cl)ccc2Cl)n1,-3.09%
15,COc1ccc(C2C(C#N)=C(N)Oc3[nH]nc(C45CC6CC(CC(C6)C4)C5)c32)cc1OC (centres unmarked),5.87%
16,CCOc1ccc(C2CC(=O)N=C(NC(=O)c3cccc(F)c3)N2)cc1 (centres unmarked),-3.3%
17,COc1ccc(CC(=O)Nc2ccc(Nc3ccccc3)cc2)cc1,3.8%
18,OCc1c(O)cnc2ccccc12,-3.65%
19,Oc1ccc(Cl)cc1-c1cnc2ccccc2n1,-3.85%
20,Cc1ccc(CN(C(=O)/C=C\C(=O)O)C(C)(C)C)cc1,1.7%
21,CCOc1ccc2nc(NC(=O)c3cccc(C)c3)sc2c1,-5.3%
22,N#Cc1c2n(c3c(=O)n(Cc4ccccc4)cnc13)CCCC2,1.41%

row,SMILES,% Inhibition @ 10 uM
1,COc1cccc2c1NC(c1ccc([N+](=O)[O-])cc1)C1CC=CC21 (centres unmarked),13.1%
2,COc1ccccc1-c1cc2nc(C)c(CCC(=O)NC(C)CCc3ccco3)c(C)n2n1 (centres unmarked),-2.25%
3,CCOC(=O)N1CCC(NC(=O)c2csc3c2CCCC3)CC1,-5.05%
4,CCNC(=O)c1c(NC(=O)COc2c(C)cccc2C)sc2c1CCCC2,-1.38%
5,O=C(CN1C(=O)CSc2ncccc21)NCCCN1CCN(C2CCCCC2)CC1,1.03%
6,CCCCn1/c(=N\C(=O)c2ccco2)c(C(=O)OCC)cc2c(=O)n3ccccc3nc21,-5.57%
7,O=C(NC1CCCC1)c1ccccc1-c1nc2ccccc2[nH]1,0.219%
8,CCOc1ccc(C(=O)Nc2ccccc2F)cc1,3.44%
9,Cc1nc2c(C)cccc2c(O)c1CCC(=O)O,4.42%
10,CC(=O)Nc1sc(Cl)cc1C(=O)c1ccccc1,4.28%
11,CCN(CC)S(=O)(=O)c1cc(C(N)=O)ccc1C,3.48%
12,COc1cccc(N(CC(=O)Nc2ccccc2Br)S(=O)(=O)c2ccc(C)cc2)c1,-0.796%
13,COc1cc2oc3cc4c(cc3c(=O)c2cc1OC)CCC(C)(C)O4,5.18%
14,CCCNC(=O)/C(=C/c1cn(CC)c2ccccc12)NC(=O)c1ccccc1F,-3.52%
15,CC(=O)c1sc(Nc2ccc(C)cc2)nc1C,1.35%
16,CCCn1c2ccccc2c2cnn(CC(=O)NCCc3cccc(C)c3)c(=O)c21,5.46%
17,COc1cccc(CC2(NC(=O)c3ccccc3)N=C3C(C)=CC=CN3C2=O)c1OC (centres unmarked),-2.37%
18,COc1ccc(CCNC(=O)CS(=O)(=O)Cc2nc(-c3ccc(C)cc3)oc2C)cc1OC,-1.89%
19,O=[N+]([O-])c1ccc(C2NCCc3c2[nH]c2ccccc32)cc1 (centres unmarked),1.21%
20,CCn1c(CN2CCOCC2)nc2c1c(=O)[nH]c(=O)n2C,-1.21%
21,O=S(=O)(O)CCCSc1nc2ccccc2s1,-0.053%
22,O=C(/C=C/c1ccco1)NC(=S)N1CCOCC1,-1.69%

row,SMILES,% Inhibition @ 10 uM
1,CC(=O)N1N=C2C3CCN(CC3)C2C1c1cccc(F)c1 (centres unmarked),2%
2,Cc1ccc(-c2csc(NC(=O)c3ccco3)n2)cc1,2.67%
3,C=CCSc1nnc(NC(=O)Cc2coc3c(C)c(C)ccc23)s1,7.17%
4,CCC(=O)n1nc(-c2cccnc2)nc1NCc1ccccc1,3.81%
5,CCOC(=O)/C=C/c1c(C)[nH]c(=O)[nH]c1=O,-6.7% and 0.484%
6,CCCCCSc1nc2c(c(=O)[nH]c(=O)n2C)n1CC,3.96%
7,O=C(CSc1nc2cc(C(F)(F)F)ccc2n1C1CC1)N1CCc2ccccc2C1,0.776%
8,CCOC(=O)/C(C#N)=C/c1c(Oc2ccccc2)nc2ccccn2c1=O,9.35%
9,COc1cccc(C2CC(C(F)(F)F)n3ncc(C(=O)N4CC5(C)CC4CC(C)(C)C5)c3N2)c1 (centres unmarked),-1.72%
10,COc1ccc(C(=O)NCc2ccc(C)cc2)cc1,-3.37%
11,CCOc1cc(C(=O)Nc2cccc(C)n2)cc(OCC)c1OCC,5.06%
12,COc1cc(OC)cc(C(=O)Nc2ccc3ccccc3c2)c1,1.04%
13,COc1ccccc1N1CCN(C(C)Cc2ccc(F)cc2)CC1 (centres unmarked),-1.41%
14,COc1cc(S(=O)(=O)N2CCN(c3ccc(C)c(Cl)c3)CC2)ccc1Cl,-1.02%
15,CCCCNCc1c(C(=O)O)n(Cc2cc(C)ccc2C)c2ccccc12,-5.05%
16,CN1CCC(N(C)Cc2ccc(Cl)cc2)CC1,3.16%
17,CCCCS(=O)(=O)CC1CC1(Cl)Cl (centres unmarked),-0.0626%
18,Oc1c2nc3ccccc3c-2ncn1CCN1CCN(Cc2ccccc2)CC1,6.31%
19,Cn1c(=O)n(Cc2ccccc2)c(=O)c2c1ncn2CCO,-1.52%
20,CC(C)Nc1cc(-c2ccccc2)nc2nncn12,-2.79%
21,CSC1=N/C(=C\c2c(C)nn(-c3ccccc3)c2Cl)C(=O)S1,-3.33%
